Test results reported in PMC4336329 (PLoS ONE, 2015).
Among all 310,000 compounds or so, about 2,200 (0.71%) showed an effect of 50% or more. The effect is printed as a negative number. The list shows a part of the results.

target: human ether-à-go-go-related gene (hERG) potassium channel (human, UniProt Q12809); assay: primary screen, population patch clamp on CHO cells stably expressing hERG
Sequence (Q12809 whole entry, looked up): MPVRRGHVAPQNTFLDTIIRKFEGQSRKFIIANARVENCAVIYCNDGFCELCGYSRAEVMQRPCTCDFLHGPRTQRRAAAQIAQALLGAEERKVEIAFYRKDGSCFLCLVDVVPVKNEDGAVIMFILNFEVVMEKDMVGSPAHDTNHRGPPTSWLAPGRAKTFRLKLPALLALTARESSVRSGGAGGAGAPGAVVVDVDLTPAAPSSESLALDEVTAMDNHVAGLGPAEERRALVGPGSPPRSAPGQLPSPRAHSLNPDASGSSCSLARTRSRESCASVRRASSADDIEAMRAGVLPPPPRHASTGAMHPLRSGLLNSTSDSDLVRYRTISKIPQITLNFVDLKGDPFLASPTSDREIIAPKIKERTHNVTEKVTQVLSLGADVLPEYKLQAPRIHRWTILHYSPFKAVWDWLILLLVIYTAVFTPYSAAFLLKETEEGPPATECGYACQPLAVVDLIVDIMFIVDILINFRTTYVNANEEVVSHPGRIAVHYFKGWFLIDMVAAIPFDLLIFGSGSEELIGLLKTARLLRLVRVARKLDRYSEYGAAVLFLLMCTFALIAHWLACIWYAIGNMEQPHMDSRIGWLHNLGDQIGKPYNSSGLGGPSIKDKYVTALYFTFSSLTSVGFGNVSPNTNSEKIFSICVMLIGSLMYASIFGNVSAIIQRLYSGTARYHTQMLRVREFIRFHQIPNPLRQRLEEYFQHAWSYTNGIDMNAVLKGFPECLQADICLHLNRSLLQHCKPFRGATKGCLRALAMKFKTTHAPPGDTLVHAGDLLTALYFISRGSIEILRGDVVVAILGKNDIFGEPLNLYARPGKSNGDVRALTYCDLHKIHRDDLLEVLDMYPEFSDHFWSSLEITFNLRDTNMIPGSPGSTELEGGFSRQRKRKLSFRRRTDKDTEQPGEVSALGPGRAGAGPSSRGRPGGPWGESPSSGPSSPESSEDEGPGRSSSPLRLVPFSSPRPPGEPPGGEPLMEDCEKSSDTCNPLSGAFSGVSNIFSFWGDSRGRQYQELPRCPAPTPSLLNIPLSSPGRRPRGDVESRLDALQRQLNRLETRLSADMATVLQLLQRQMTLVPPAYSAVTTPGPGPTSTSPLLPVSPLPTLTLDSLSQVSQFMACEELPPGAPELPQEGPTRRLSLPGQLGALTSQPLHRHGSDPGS

| Structure (SMILES) | hERG current change (%, negative = inhibition) at 1uM |
| --- | --- |
| COc1cccc(NC(=O)CN2CCN(S(=O)(=O)c3ccc(C(C)C)cc3)CC2)c1 | -4.1% |
| Clc1ccc(-n2ncc3c(NCc4ccco4)ncnc32)cc1 | 1.14% |
| O=C(CSc1ncc(-c2ccc(F)cc2)[nH]1)NCc1ccco1 | 5.59% |
| CC(CN1CCOCC1)OC(=O)c1ccccc1.Cl (stereo not drawn) | 12% |
| CCCSCCCNC(=O)CC1Oc2ccccc2NC1=O (stereo not drawn) | 4.39% |
| CN(C)NC(=S)Nc1cccc(C(F)(F)F)c1 | 6.04% |
| COc1ccc(-n2cccc2C=O)cc1 | 6.98% |
| Cc1ccc(-c2csc(NNC(=O)c3ccccc3)n2)cc1 | 4.75% |
| COc1cccc(NC(=O)N(Cc2ccco2)C(C)c2cccs2)c1 (stereo not drawn) | 11.7% |
| COc1ccc(CC(=O)n2nc(-c3ccc(Cl)cc3)nc2NCc2ccco2)cc1 | 2.82% |
| COC(=O)c1ccc2c(=O)n(-c3ccccc3F)c(=S)[nH]c2c1 | 3.81% |
| O=C(c1ccc(F)cc1)N1CCC(c2ccccc2)C1 (stereo not drawn) | 14.7% |
| CC(=O)c1c(C)oc2ccc(N(C(=O)C3CCCCC3)S(=O)(=O)c3cc([N+](=O)[O-])ccc3C)cc12 | 6.83% |
| OC(c1cccs1)c1nccc2ccccc12 (stereo not drawn) | 0.742% |
| CCN1CCN(c2c(Cl)cccc2NC(=O)c2ccc3nsnc3c2)CC1 | 12.5% |
| COC(=O)CCC(=O)Nc1ccc(Cl)c(Cl)c1 | 7.38% |
| Cc1ccc(CNC(=O)c2ccc(Cl)c(S(N)(=O)=O)c2)n1C | 9.41% |
| COc1ccc(NC(=O)CC(C(=O)O)C(C)c2ccccc2)cc1 (stereo not drawn) | 15.2% |
| COC(=O)c1ccccc1OP(=O)(c1cccc([N+](=O)[O-])c1)c1cccc([N+](=O)[O-])c1 | 7.95% |
| CC(C)c1nnc(NC(=O)Cc2ccc(Br)cc2)s1 | 9.99% |
| COCc1c(C(=O)OCc2nc(N)nc(Nc3ccccc3C)n2)oc2ccccc12 | 10.2% |
| O=C(Nc1ccc(Cl)cc1)Nc1ccc(N2CCC(C(F)(F)F)CC2)nc1 | 5.39% |
| COC(=O)C1=C(N)OC2=C(C(=O)CCC2)C1c1ccc2c(c1)OCO2 (stereo not drawn) | 16.8% |

| Structure (SMILES) | hERG current change (%, negative = inhibition) at 1uM |
| --- | --- |
| CN(CC(=O)Nc1ccc(Cl)cc1)CC(=O)Nc1cccc(Br)c1 | 6.58% |
| CCCc1cc(Nc2cccc(OCC)c2)n2ncnc2n1 | -26% |
| Brc1ccc(-c2csc(N3CCC(c4ccccc4)C3)n2)cc1 (stereo not drawn) | -6.94% |
| O=c1c2[nH]c3ccc(F)cc3c2nc2n1CCS2 | 15.6% |
| Cc1occc1C(=O)NNC(=O)c1ccccc1F | 8.78% |
| CC(=O)OCCNc1nc(-c2ccccc2)nc2ccccc12 | 5.35% |
| CCN(CC(=O)Nc1ccc(Br)cc1)C(=O)Cc1cccc(F)c1 | 1.16% |
| C=C1CCN([C@@H](Cc2ccccc2)C(=O)NCCCc2ccccc2)S(=O)(=O)c2ccccc21 | 2.78% |
| CCCCCn1c(SCCC(C)C)nc2c1c(=O)[nH]c(=O)n2C | 7.97% |
| CC1=C(C)C(=O)N(CCC(=O)O)C1=O | 10.9% |
| COc1cc(NC(=O)N[C@@H](Cc2ccccc2)C(=O)O)cc(OC)c1 | -2.98% |
| CCCc1cc(=O)oc2c(CN(CC)CC)c(O)c(Cl)cc12 | -7.25% |
| Cc1cccc(N2CCc3c2nc2ccccc2c3N)c1.Cl | -13.8% |
| CCNC(=O)c1oc2c(c1C)C(=O)CC(C)(C)C2 | 11.2% |
| O=C(N/N=C/c1cccc([N+](=O)[O-])c1)c1c[nH]c2ccccc12 | 5.45% |
| CC(C)C(c1nnnn1Cc1cccs1)N1CCN(C(=O)c2ccco2)CC1 (stereo not drawn) | -1.53% |
| CCOc1ccc(C(=O)c2ccc([N+](=O)[O-])cc2Cl)cc1 | 9.02% |
| Cc1ccc(NC(=O)CSc2nnc3ccccn23)cc1S(=O)(=O)N1CCOCC1 | 9.86% |
| O=C(CCc1ccccc1)Nc1cccnc1 | 11.9% |
| CNC(=O)c1[nH]cnc1C(=O)Nc1ccccc1C | 12.8% |
| CCOc1ccc(NC2OCC(O)C(O)C2O)c([N+](=O)[O-])c1 (stereo not drawn) | 9.59% |
| CCCCN(C(=O)CSCC(=O)Nc1ccc(C)cc1)c1c(N)n(CCCC)c(=O)[nH]c1=O | 11.1% |
